Experimental findings from publication PMC4336329 (PLoS ONE, 2015) are described below.

Screen size: about 310,000 compounds; about 2,200 (0.71%) showed an effect of 50% or more. The effect is printed as a negative number. The list shows a part of the results.

For this assay, the target named is human ether-à-go-go-related gene (hERG) potassium channel (human, UniProt Q12809). Description: primary screen, population patch clamp on CHO cells stably expressing hERG.
Sequence of human ether-à-go-go-related gene (hERG) potassium channel (Q12809 whole entry, looked up): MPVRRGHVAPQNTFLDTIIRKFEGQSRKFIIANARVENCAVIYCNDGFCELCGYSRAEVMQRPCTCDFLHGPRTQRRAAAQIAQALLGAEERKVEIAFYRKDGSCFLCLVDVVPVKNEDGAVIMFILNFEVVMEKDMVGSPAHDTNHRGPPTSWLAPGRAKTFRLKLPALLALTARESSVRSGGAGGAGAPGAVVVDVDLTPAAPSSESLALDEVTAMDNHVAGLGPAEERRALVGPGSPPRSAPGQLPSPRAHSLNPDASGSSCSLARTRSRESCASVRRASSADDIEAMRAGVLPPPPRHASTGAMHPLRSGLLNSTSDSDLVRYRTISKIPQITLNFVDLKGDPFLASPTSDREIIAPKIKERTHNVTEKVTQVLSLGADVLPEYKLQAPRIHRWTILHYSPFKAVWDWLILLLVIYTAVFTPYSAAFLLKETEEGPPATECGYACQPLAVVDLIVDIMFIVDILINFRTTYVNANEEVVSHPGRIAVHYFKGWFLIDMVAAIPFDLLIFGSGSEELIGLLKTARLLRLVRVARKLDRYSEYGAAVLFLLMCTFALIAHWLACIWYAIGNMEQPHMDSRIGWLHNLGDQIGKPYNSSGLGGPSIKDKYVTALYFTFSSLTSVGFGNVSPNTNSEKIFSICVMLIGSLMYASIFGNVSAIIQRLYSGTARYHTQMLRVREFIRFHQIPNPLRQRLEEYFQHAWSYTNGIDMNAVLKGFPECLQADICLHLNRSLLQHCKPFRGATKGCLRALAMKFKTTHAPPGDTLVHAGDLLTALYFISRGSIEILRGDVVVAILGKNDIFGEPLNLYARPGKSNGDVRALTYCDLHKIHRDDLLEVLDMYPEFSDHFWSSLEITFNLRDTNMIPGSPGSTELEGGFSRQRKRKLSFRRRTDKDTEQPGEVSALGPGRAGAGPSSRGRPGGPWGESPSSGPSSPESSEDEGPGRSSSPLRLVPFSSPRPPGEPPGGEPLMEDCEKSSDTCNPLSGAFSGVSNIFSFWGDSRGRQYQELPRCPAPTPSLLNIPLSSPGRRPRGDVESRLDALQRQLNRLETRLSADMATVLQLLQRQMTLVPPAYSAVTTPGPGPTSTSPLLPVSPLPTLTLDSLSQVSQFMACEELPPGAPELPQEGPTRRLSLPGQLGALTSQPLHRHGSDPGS
For the compound `CC(C)N1CC2=C(OC(N)=C(C#N)C2c2cccnc2)/C(=C/c2cccnc2)C1` (centres unmarked), the “hERG current change (%, negative = inhibition) at 1uM” value stood at 2.83%.

With `O=C(CCS(=O)(=O)c1ccc(Cl)cc1)Nc1nc(-c2cccnc2)cs1`, the “hERG current change (%, negative = inhibition) at 1uM” value was 9.46%.

Consider `CC(=O)c1ccc(N2CCN(S(=O)(=O)c3c(C(=O)N4CCCC4)c(C)n(C)c3C)CC2)cc1`, for which the “hERG current change (%, negative = inhibition) at 1uM” value was found to be 16.7%.

As for `COCCCNC(=O)CCc1nnc2ccc(N3CCC(C)CC3)nn12`, the “hERG current change (%, negative = inhibition) at 1uM” value stood at 12.7%.

`CCOc1ccc(C(=O)Cc2ccc3oc(C(=O)O)cc3c2)c(O)c1`: the “hERG current change (%, negative = inhibition) at 1uM” value is 0.361%.

With `O=C(c1ccco1)N1CCN(C2c3ccccc3-c3ccccc32)CC1`, the “hERG current change (%, negative = inhibition) at 1uM” value was 11.9%.

Consider `COc1ccc(NC(=O)c2ccc3c(=O)n(-c4ccc(OC)cc4OC)c(=S)[nH]c3c2)cc1`, for which the “hERG current change (%, negative = inhibition) at 1uM” value was 10.8%.

With `O=C(O)c1cccc(-n2cnnn2)c1`, the “hERG current change (%, negative = inhibition) at 1uM” value came out at 10.6%.

Take `Clc1cnc(N/N=C/c2ccco2)c(Cl)c1`: the “hERG current change (%, negative = inhibition) at 1uM” value was -4.51%.

For the compound `CCN(CC)Cc1cc(C(=O)O)c(C)o1`, the “hERG current change (%, negative = inhibition) at 1uM” value worked out at 12.1%.

As to `CC(C)c1ccc(NC(=O)c2cc(S(=O)(=O)N3CCCC3)c[nH]2)cc1`, the “hERG current change (%, negative = inhibition) at 1uM” value amounted to 10.4%.

Consider `Cc1ccccc1NC(=O)CNC(=O)c1ccc(C(F)(F)F)cc1`, for which the “hERG current change (%, negative = inhibition) at 1uM” value was 14.1%.

On to `Cc1nnc(SCC(=O)NC(=O)NCc2ccco2)s1`, for which the “hERG current change (%, negative = inhibition) at 1uM” value is on record as 9.29%.

Consider `CC(C)n1nc(C(=O)NCCc2ccc(S(N)(=O)=O)cc2)c2ccccc2c1=O`, for which the “hERG current change (%, negative = inhibition) at 1uM” value is recorded as 0.485%.

Regarding `CCN1C(=O)/C(=C\c2ccc(-c3cccc(C(=O)OC)c3)o2)SC1=Nc1ccc(C(=O)O)cc1`, the “hERG current change (%, negative = inhibition) at 1uM” value amounted to 16%.

As to `N#Cc1cccc(C#N)c1Oc1ccc(S(=O)(=O)Nc2ccc(Cl)cc2)cc1`, the “hERG current change (%, negative = inhibition) at 1uM” value amounted to 13.7%.

With `COc1ccc(C)cc1NC(=O)C1CCCN1S(=O)(=O)c1ccc2c(c1)CCC(=O)N2` (centres unmarked), the “hERG current change (%, negative = inhibition) at 1uM” value is given as -5.18%.

In the case of `CC(=O)NC(CC(=O)NNC(=O)c1cccs1)c1ccccc1` (centres unmarked), the “hERG current change (%, negative = inhibition) at 1uM” value was 21.1%.

For `COCCNS(=O)(=O)c1ccc(OCC(=O)N2CCc3ccccc3C2)c(Cl)c1`, the “hERG current change (%, negative = inhibition) at 1uM” value is reported as 4.25%.

For the compound `CC1N(C(=O)N2CCOCC2)CCN1S(=O)(=O)c1cccc(C(F)(F)F)c1` (centres unmarked), the “hERG current change (%, negative = inhibition) at 1uM” value stood at 15.9%.

On to `Cc1cc(C)n(-c2c(F)c(F)c(CO)c(F)c2F)n1`, for which the “hERG current change (%, negative = inhibition) at 1uM” value came out at 8.69%.

For `COC(=O)c1cc(OC)c(OC)cc1NC(=O)c1ccc(C)o1`, the “hERG current change (%, negative = inhibition) at 1uM” value is reported as 13%.

Take `COc1ccc(OC)c(CN2CCN(S(=O)(=O)c3ccc(NC(C)=O)cc3)CC2)c1.O=C(O)C(=O)O`: the “hERG current change (%, negative = inhibition) at 1uM” value stood at 4.38%.

For the compound `O=C(Nc1cccc(C(=O)O)c1)/C(=C\c1ccccc1)NC(=O)c1ccccc1Cl`, the “hERG current change (%, negative = inhibition) at 1uM” value was found to be 7.16%.

On to `COc1ccc(Cc2nc3ccc(C(=O)N4CCCCC4CCO)cc3o2)cc1` (centres unmarked), for which the “hERG current change (%, negative = inhibition) at 1uM” value turned out to be 10.1%.

Consider `Cc1cc(C(=O)Cn2nc(C(=O)O)c3ccccc3c2=O)c(C)n1CCc1ccc(F)cc1`, for which the “hERG current change (%, negative = inhibition) at 1uM” value is recorded as 8.91%.

In the case of `O=C(NCc1ccccc1OC(F)(F)F)C1CCC(=O)N(Cc2ccccn2)C1` (centres unmarked), the “hERG current change (%, negative = inhibition) at 1uM” value is 4.53%.

In the case of `CC1=C(C(=O)c2ccccc2)C(c2cn(-c3ccccc3)nc2-c2ccc(Cl)cc2)NC(=S)N1` (centres unmarked), the “hERG current change (%, negative = inhibition) at 1uM” value was 15.8%.

On to `O=C1c2cccc3cccc(c23)C(=O)N1Nc1ccccc1`, for which the “hERG current change (%, negative = inhibition) at 1uM” value is 12.9%.

On to `CC(=O)N1N=C(c2ccc(C)o2)CC1c1ccc(F)cc1` (centres unmarked), for which the “hERG current change (%, negative = inhibition) at 1uM” value is on record as -2.69%.

On to `CCCCOC(=O)CCN1C(=O)/C(=C2\SC(=S)N(CCC(=O)OCCCC)C2=O)SC1=S`, for which the “hERG current change (%, negative = inhibition) at 1uM” value is reported as 10.3%.

As to `Cc1ccc(N2C(=O)NC(=O)/C(=C/c3ccc(-c4ccc(C(=O)O)c(Cl)c4)o3)C2=O)cc1`, the “hERG current change (%, negative = inhibition) at 1uM” value stood at 1.62%.

Take `CC(Oc1ccc(Br)cc1)C(=O)Nc1nnc(C2CC2)s1` (centres unmarked): the “hERG current change (%, negative = inhibition) at 1uM” value is 1.93%.

On to `COc1cccc(S(=O)(=O)NCc2ccc(C(=O)Nc3cccc(Cl)c3)cc2)c1`, for which the “hERG current change (%, negative = inhibition) at 1uM” value stood at 5.39%.

For `O=C(COC(=O)c1ccc(N2CCCC2=O)cc1)c1ccc(OC(F)F)cc1`, the “hERG current change (%, negative = inhibition) at 1uM” value came out at 2.83%.

Regarding `CC1(c2ccc3noc(-c4ccc(F)cc4)c3c2)OCCO1`, the “hERG current change (%, negative = inhibition) at 1uM” value stood at 4.23%.

Consider `O=C(Nc1cc2c(cc1Cl)OCCCO2)c1ccccc1`, for which the “hERG current change (%, negative = inhibition) at 1uM” value is listed as 2.67%.

`Cn1c(=O)oc2cc(S(=O)(=O)N3CCCC(C(=O)NCc4cccs4)C3)ccc21` (centres unmarked): the “hERG current change (%, negative = inhibition) at 1uM” value is reported as -1.01%.

As to `Cc1cccc2c(C(=O)N3CCCCC3)cc(-c3ccccc3)nc12`, the “hERG current change (%, negative = inhibition) at 1uM” value stood at 13.9%.

Consider `Cc1ccc(NC(=O)COC(=O)C2CC(=O)N(Cc3ccccc3)C2)cc1S(=O)(=O)N(C)C` (centres unmarked), for which the “hERG current change (%, negative = inhibition) at 1uM” value is on record as 19%.

`Cc1cccc(C(=O)NC2CC3CCCC(C2)N3C(=O)NC2CCCCC2)c1` (centres unmarked): the “hERG current change (%, negative = inhibition) at 1uM” value was 11.6%.

For `Oc1[nH]c2ccccc2c1/C=N/N1CCCCC1`, the “hERG current change (%, negative = inhibition) at 1uM” value came out at 17.5%.

`Cc1cc(C)n2nc(S(=O)(=O)N(C)Cc3ccccc3)nc2n1`: the “hERG current change (%, negative = inhibition) at 1uM” value is given as -5.36%.

With `COC(=O)c1cc(NS(=O)(=O)c2ccc(N3CCC(C)CC3)c([N+](=O)[O-])c2)cc(C(=O)OC)c1`, the “hERG current change (%, negative = inhibition) at 1uM” value stood at 8.4%.
